Earlier results as cited in patent US20110201665A1, “Compositions, Methods, and Kits for Treating Influenza Viral Infections” (priority 2009, published 2011).

Assays:
influenza A, B, and C = conditions: cited from earlier work
influenza A and B virus = conditions: cited from earlier work
influenza A or B viruses = conditions: human, in vivo, po; cited from earlier work

| SMILES | inhibitory activity against influenza A, B, and C (influenza A, B, and C) | inhibition of influenza A and B virus replication in cell culture (influenza A and B virus) | nasal wash virus titers (influenza A or B viruses) |
| --- | --- | --- | --- |
| NC(=O)c1nc(F)cnc1O [T-705, 6-fluoro-3-hydroxy-2-pyrazinecarboxamide] | potent inhibitory activity |  |  |
| CCC(CC)[C@H](NC(C)=O)[C@@H]1[C@H](O)[C@@H](C(=O)O)C[C@H]1NC(=N)N [peramivir, (1S,2S,3S,4R)-3-[(1S)-1-Acetamido-2-ethyl-butyl]-4-(diaminomethylideneamino)-2-hydroxy-cyclopentane-1-carboxylic acid] |  | potent inhibitor | significantly reduced |
